Assay results as given in the supplement of paper PMC12217912.
The list shows a part of the results. Sequences were assembled here from the parent chain. Values near 0.05 are background.

B1: TEV protease; numbered along this chain (parent)
chain: MGESLFKGPRDYNPISSSICHLTNESDGHTTSLYGIGFGPFIITNKHLFRRNNGTLVVQSLHGVFKVKDTTTLQQHLVDGRDMIIIRMPKDFPPFPQKLKFREPQREERICLVTTNFQTKSMSSMVSDTSCTFPSGDGIFWKHWIQTKDGQCGSPLVSTRDGFIVGIHSASNFTNTNNYFTSVPKNFMELLTNQEAQQWVSGWRLNADSVLWGGHKVFMVKPEEPFQPVKEATQL

Variants of: B1
Experiment: raw area under fraction-flipped curve 0-4 h after induction (AUC4h, not background-subtracted), DNA-recorder readout of cleavage of the substrate (dimensionless); higher = more cleavage of the substrate by the protease variant
Details: temperature: 34 °C; time window: 0-4 h after rhamnose induction
Method: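 In vivo DNA recorder in E. coli TOP10(DE3) ΔrhaA at 34 °C. Each TEVp single-site mutant (parent TEVp 0) is paired with a single-site variant of the 7-mer TEVs (canonical ENLYFQ|S). The substrate sits between flexible linkers in a Bxb1-sfGFP-TEVs-SsrA fusion, so cleavage stabilises Bxb1 and speeds flipping of a recombination array, read by NGS. The value is the raw area under the fraction-flipped curve over 0-4 h after rhamnose induction (AUC4h), with ≥20 reads per time point. It is not background-subtracted; inactive controls average about 0.047.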
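Further: Bxb1 expression induced with 0.2% (w/v) L-rhamnose at OD600 near 0.5, cultures sampled hourly, flipped fraction per protease–substrate barcode pair counted by paired-end Illumina sequencing.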

Variant	area with substrate ENLAFQS	area with substrate ENLEFQS	area with substrate ENLFFQS	area with substrate ENLGFQS	area with substrate ENLIFQS	area with substrate ENLKFQS	area with substrate ENLPFQS	area with substrate ENLRFQS	area with substrate ENLSFQS	area with substrate ENLVFQS	area with substrate ENLWFQS	area with substrate ENLDFQS	area with substrate ENLCFQS	area with substrate ENLHFQS	area with substrate ENLNFQS	area with substrate ENLQFQS	area with substrate ENLTFQS	area with substrate ENLLFQS	area with substrate ENLMFQS
MGESLFKGPRDYNPISSSICHLTNESDGHTTSLYGIGFGPFIITNKHLFRRNNGTLVVQSLHGVFKVKDTTTLQQHLVDGRDMIIIRMPKDFPPFPQKLKFRMPQREERICLVTTNFQTKSMSSMVSDTSCTFPSGDGIFWKHWIQTKDGQCGSPLVSTRDGFIVGIHSASNFTNTNNYFTSVPKNFMELLTNQEAQQWVSGWRLNADSVLWGGHKVFMVKPEEPFQPVKEATQL [E103M]	0.0674	0.0653	0.0824	0.0608	0.107	0.0724	0.0616	0.0764	0.0587	0.0791	0.0801	–	–	–	–	–	–	–	–
MGESLFKGPRDYNPISSSICHLTNESDGHTTSLYGIGFGPFIITNKHLFRRNNGTLVVQSLHGVFKVKDTTTLQQHLVDGRDMIIIRMPKDFPPFPQKLKFRSPQREERICLVTTNFQTKSMSSMVSDTSCTFPSGDGIFWKHWIQTKDGQCGSPLVSTRDGFIVGIHSASNFTNTNNYFTSVPKNFMELLTNQEAQQWVSGWRLNADSVLWGGHKVFMVKPEEPFQPVKEATQL [E103S]	0.0793	–	–	–	–	–	0.0804	0.0812	–	–	–	0.061	–	–	–	–	–	–	–
MGESLFKGPRDYNPISSSICHLTNESDGHTTSLYGIGFGPFIITNKHLFRRNNGTLVVQSLHGVFKVKDTTTLQQHLVDGRDMIIIRMPKDFPPFPQKLKFREPQREEKICLVTTNFQTKSMSSMVSDTSCTFPSGDGIFWKHWIQTKDGQCGSPLVSTRDGFIVGIHSASNFTNTNNYFTSVPKNFMELLTNQEAQQWVSGWRLNADSVLWGGHKVFMVKPEEPFQPVKEATQL [R109K]	0.0326	–	0.0704	–	0.0789	–	0.0522	–	0.0656	–	0.0598	0.0748	–	–	–	–	–	–	–
MGESLFKGPRDYNPISSSICHLTNESDGHTTSLYGIGFGPFIITNKHLFRRNNGTLVVQSLHGVFKVKDTTTLQQHLVDGRDMIIIRMPKDFPPFPQKLKFREPQREERFCLVTTNFQTKSMSSMVSDTSCTFPSGDGIFWKHWIQTKDGQCGSPLVSTRDGFIVGIHSASNFTNTNNYFTSVPKNFMELLTNQEAQQWVSGWRLNADSVLWGGHKVFMVKPEEPFQPVKEATQL [I110F]	0.0469	0.0597	0.0578	–	0.0477	0.0558	0.0489	0.0583	0.0497	0.046	0.054	0.0549	0.0526	0.0449	0.0612	0.052	0.066	–	–
MGESLFKGPRDYNPISSSICHLTNESDGHTTSLYGIGFGPFIITNKHLFRRNNGTLVVQSLHGVFKVKDTTTLQQHLVDGRDMIIIRMPKDFPPFPQKLKFREPQREERRCLVTTNFQTKSMSSMVSDTSCTFPSGDGIFWKHWIQTKDGQCGSPLVSTRDGFIVGIHSASNFTNTNNYFTSVPKNFMELLTNQEAQQWVSGWRLNADSVLWGGHKVFMVKPEEPFQPVKEATQL [I110R]	0.0638	0.0606	–	0.0593	0.0529	0.0657	–	–	0.0417	–	0.0308	0.0543	0.0645	–	–	–	–	0.0437	–
MGESLFKGPRDYNPISSSICHLTNESDGHTTSLYGIGFGPFIITNKHLFRRNNGTLVVQSLHGVFKVKDTTTLQQHLVDGRDMIIIRMPKDFPPFPQKLKFREPQREERICLVNTNFQTKSMSSMVSDTSCTFPSGDGIFWKHWIQTKDGQCGSPLVSTRDGFIVGIHSASNFTNTNNYFTSVPKNFMELLTNQEAQQWVSGWRLNADSVLWGGHKVFMVKPEEPFQPVKEATQL [T114N]	0.0718	0.0682	0.0916	–	–	–	0.0985	–	0.0594	–	0.0585	–	–	–	0.0679	0.0751	–	–	0.0756
MGESLFKGPRDYNPISSSICHLTNESDGHTTSLYGIGFGPFIITNKHLFRRNNGTLVVQSLHGVFKVKDTTTLQQHLVDGRDMIIIRMPKDFPPFPQKLKFREPQREERICLVTKNFQTKSMSSMVSDTSCTFPSGDGIFWKHWIQTKDGQCGSPLVSTRDGFIVGIHSASNFTNTNNYFTSVPKNFMELLTNQEAQQWVSGWRLNADSVLWGGHKVFMVKPEEPFQPVKEATQL [T115K]	0.0716	0.062	0.0782	0.0462	0.0939	0.106	0.0554	–	0.0688	–	–	0.073	0.0854	0.0774	0.0692	0.0453	0.0613	–	0.0759
MGESLFKGPRDYNPISSSICHLTNESDGHTTSLYGIGFGPFIITNKHLFRRNNGTLVVQSLHGVFKVKDTTTLQQHLVDGRDMIIIRMPKDFPPFPQKLKFREPQREERICLVTQNFQTKSMSSMVSDTSCTFPSGDGIFWKHWIQTKDGQCGSPLVSTRDGFIVGIHSASNFTNTNNYFTSVPKNFMELLTNQEAQQWVSGWRLNADSVLWGGHKVFMVKPEEPFQPVKEATQL [T115Q]	0.0588	0.0685	0.0675	–	0.0895	0.0901	0.0664	0.0708	0.0615	0.0885	0.0718	0.0477	0.0678	0.0732	0.0756	0.101	–	0.0646	–
MGESLFKGPRDYNPISSSICHLTNESDGHTTSLYGIGFGPFIITNKHLFRRNNGTLVVQSLHGVFKVKDTTTLQQHLVDGRDMIIIRMPKDFPPFPQKLKFREPQREERICLVTRNFQTKSMSSMVSDTSCTFPSGDGIFWKHWIQTKDGQCGSPLVSTRDGFIVGIHSASNFTNTNNYFTSVPKNFMELLTNQEAQQWVSGWRLNADSVLWGGHKVFMVKPEEPFQPVKEATQL [T115R]	0.0785	–	0.0799	–	0.0807	0.0838	–	0.119	0.0576	–	0.0756	0.0623	–	0.0742	0.06	–	–	–	–
